# Hit rate of the full screen: of about 310,000 compounds, about 14,000 (4.5%) showed an effect of 50% or more. Effects have a minus sign here. Some of the results follow.
# Target: human ether-à-go-go-related gene (hERG) potassium channel (human, UniProt Q12809)
# Experiment: primary screen, population patch clamp on CHO cells stably expressing hERG
# 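Note: peak tail current of the secondary pulse compared with the same well before compound.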
# human ether-à-go-go-related gene (hERG) potassium channel, sequence (Q12809 whole entry, looked up): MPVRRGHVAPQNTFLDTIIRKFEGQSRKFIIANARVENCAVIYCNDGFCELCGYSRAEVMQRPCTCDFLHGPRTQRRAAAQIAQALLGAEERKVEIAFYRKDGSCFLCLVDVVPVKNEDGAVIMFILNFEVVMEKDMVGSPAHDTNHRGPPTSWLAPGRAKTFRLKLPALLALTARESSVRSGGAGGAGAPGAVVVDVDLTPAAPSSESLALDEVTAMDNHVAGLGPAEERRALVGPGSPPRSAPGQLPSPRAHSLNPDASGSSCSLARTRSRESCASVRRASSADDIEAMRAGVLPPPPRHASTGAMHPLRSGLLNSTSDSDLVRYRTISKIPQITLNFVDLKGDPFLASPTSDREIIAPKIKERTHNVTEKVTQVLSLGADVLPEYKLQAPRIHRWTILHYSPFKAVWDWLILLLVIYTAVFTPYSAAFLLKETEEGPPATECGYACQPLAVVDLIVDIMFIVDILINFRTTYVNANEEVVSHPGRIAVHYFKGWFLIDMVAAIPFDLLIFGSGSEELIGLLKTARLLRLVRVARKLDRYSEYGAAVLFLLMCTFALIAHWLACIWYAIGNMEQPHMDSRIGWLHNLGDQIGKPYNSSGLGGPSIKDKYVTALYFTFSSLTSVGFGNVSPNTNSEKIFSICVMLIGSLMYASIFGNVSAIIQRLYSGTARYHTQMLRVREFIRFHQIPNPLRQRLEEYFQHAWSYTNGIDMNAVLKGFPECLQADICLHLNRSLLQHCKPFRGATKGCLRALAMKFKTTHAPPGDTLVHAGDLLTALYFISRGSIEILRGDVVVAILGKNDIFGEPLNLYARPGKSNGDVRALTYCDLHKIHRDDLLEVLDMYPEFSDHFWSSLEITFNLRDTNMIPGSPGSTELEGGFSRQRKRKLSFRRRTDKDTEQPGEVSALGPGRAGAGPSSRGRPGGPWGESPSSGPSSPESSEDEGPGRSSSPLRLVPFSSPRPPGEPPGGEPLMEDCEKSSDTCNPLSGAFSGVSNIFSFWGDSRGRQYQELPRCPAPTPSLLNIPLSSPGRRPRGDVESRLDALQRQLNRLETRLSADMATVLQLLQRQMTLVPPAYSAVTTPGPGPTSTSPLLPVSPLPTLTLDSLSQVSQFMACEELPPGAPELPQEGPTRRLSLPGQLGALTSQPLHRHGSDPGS
row,SMILES,"hERG current change (%, negative = inhibition) at 10uM"
1,CCN1CCN(Cc2cc(=O)oc3ccc(Cl)cc23)CC1,-15%
2,CC(Sc1nc2c(c(=O)[nH]1)CCCC2)C(=O)Nc1ccc(Br)cn1 (stereo not drawn),-8.59%
3,N#Cc1c(N)nc2c(c1-c1ccccc1)CCCC2,-1.63%
4,COC(=O)c1ccc(CO/N=C/c2ccc(OC)cc2OC)cc1,14.4%
5,CC(c1ccccc1)C1OCC(C[N+]2(C)CCCCC2)O1.[I-] (stereo not drawn),20%
6,CCOC(=O)N1CCN(C(=O)c2ccc3nc(-c4ccccc4)c(-c4ccccc4)nc3c2)CC1,-54.6%
7,CCOc1cc(C(=O)OCC(=O)Nc2cccc(C)c2)ccc1OCC(=O)N1CCOCC1,10.1%
8,COC(=O)C1C(=O)NCC1c1ccccc1 (stereo not drawn),25.3%
9,Cn1nc(C(=O)N2CCc3ccccc3C2)c2ccccc2c1=O,6.13%
10,O=[N+]([O-])c1cc(CS(=O)(=O)Oc2ccc(Cl)cc2)c(O)c([N+](=O)[O-])c1,15.1%
11,CCOC(=O)/C=c1\s/c(=C\c2ccc(C#N)cc2)c(=O)n1CC(=O)NCc1ccco1,3.55%
12,O=C(COC(=O)c1cc(=O)[nH]c2ccccc12)c1ccc(Br)cc1,4.54%
13,COc1cccc(C(C(=O)NCc2ccccc2)N(C(=O)c2csnn2)C2CC2)c1 (stereo not drawn),-4.31%
14,COc1ccccc1-c1ccc(SCc2ccccc2F)nn1,-7%
15,O=C(CSc1nnnn1-c1ccc(C(=O)O)cc1)NC1CCCCC1,1.48%
16,O=C1CC(c2ccc(F)cc2)CC(O)=C1C1NCCc2ccccc21 (stereo not drawn),8.49%
17,Cc1noc(C)c1CSc1ncnc2sc3c(c12)CCCCC3,11%
18,CC(C)COP(=O)(OCC(C)C)C(O)c1ccccc1F (stereo not drawn),-1.27%
19,COc1cccc(/C=N/NC(=O)CCCc2ccc(OC)c(C)c2)c1,-3.05%

row,SMILES,"hERG current change (%, negative = inhibition) at 10uM"
1,O=C(NCCN1CCCC1)c1ccc2c(c1)N(Cc1ccccc1)C(=O)c1ccccc1S2(=O)=O,4.59%
2,Cc1ccc(C2N(c3cc(C)on3)C(=O)C3CCCN32)cc1 (stereo not drawn),8.51%
3,Cc1cccc2nc3ccccc3cc12,-1.16%
4,O=C(Cc1ccc(F)cc1)Nc1ccc2[nH]ncc2c1,18.6%
5,C=CCOc1cccc(C2/C(=C(\O)c3ccc4c(c3)OCCO4)C(=O)C(=O)N2CCN2CCOCC2)c1 (stereo not drawn),-13.1%
6,CN(C)CCNCCCOc1ccccc1-c1ccccc1.O=C(O)C(=O)O,-20.7%
7,Cc1cc(C(F)F)nn1CC(=O)NCc1ccccc1F,0.0703%
8,Cc1ccc(C)c(S(=O)(=O)N2CCN(CC(=O)Nc3ccc4c(c3)OCCO4)CC2)c1,-13.9%
9,O=C(Nc1ccc(-c2cn3ccsc3n2)cc1)C1CCCC1,9.55%
10,CCOc1cc(C2C(C(=O)OCC(C)C)=C(C)N=C3SCCC(=O)N32)ccc1OC(C)=O (stereo not drawn),-11.2%
11,CCCCNc1nc(-c2ccccc2)cc(C(F)(F)F)c1C(N)=O,13.5%
12,CCOC(=O)N1CCC(NC(=O)Cn2ncc3c2-c2cc(C)ccc2OC3)CC1,-1.52%
13,CCCn1cnc2c(cnn2-c2ccc(F)cc2)c1=O,-5.26%
14,Cc1ccc(C2N(c3cccc(Cl)c3)C(=O)N3CCCN23)cc1 (stereo not drawn),-12%
15,COc1ccc(-c2nnc(NC(=O)CSc3ccccc3)s2)cc1OC,12.2%
16,CC1CCN(Cc2nnnn2-c2ccc(Cl)cc2)CC1,-4.53%
17,CCOC(=O)C1CCCCN1C(=O)CCc1nnc(-c2ccc3c(c2)OCO3)o1 (stereo not drawn),8.84%
18,Cc1ccsc1/C=N\NC(=O)Cn1nnc2ccccc21,5.64%
19,COc1cccc(N(C(=O)c2ccco2)c2nc(-c3sc(NC(=O)c4ccco4)nc3C)cs2)c1,29.4%

row,SMILES,"hERG current change (%, negative = inhibition) at 10uM"
1,O=c1cc(CSc2ccccn2)[nH]c(=O)[nH]1,3.76%
2,COc1ccccc1CCC(=O)Nc1nc2ccccc2[nH]1,15.7%
3,CCCOP(=O)(c1ccc(N(C)C)cc1)C(O)c1c(Cl)cccc1Cl (stereo not drawn),0.712%
4,Cc1ccc2c(Cl)c(C)c(N3CCCC3)nc2n1,-2.23%
5,CCN1CCN(c2cc3c(cc2F)c(=O)c(S(=O)(=O)c2ccccc2)cn3C)CC1,-19%
6,O=C(CN1C(=O)S/C(=C\c2ccc(-c3cc(C(=O)O)ccc3Cl)o2)C1=O)Nc1ccc2c(c1)OCO2,9.81%
7,O=C(NCC1CCCO1)c1ccc(N2CCCCC2)c([N+](=O)[O-])c1 (stereo not drawn),-35.3%
8,Cn1cc(CN2CCC(n3nccc3NC(=O)C3CCCC3)CC2)cn1,12.6%
9,CCOC(=O)c1cnn(-c2ccccc2)c1NC(=O)c1cccs1,-5.91%
10,COc1ccc(-n2c(SCC(=O)Nc3cccc(C(=O)O)c3)nnc2-c2ccco2)cc1,17.7%
11,COc1ccc(Br)cc1CN(C)CC(=O)Nc1c(Cl)cccc1Cl,-3.2%
12,O=c1c2ccccc2nc(/C=C/c2ccc(F)cc2)n1-c1ccccc1O,2.07%
13,COc1cc(NC(=O)C(F)(F)F)cc(OC)c1,-8.82%
14,Cc1cc(N)c(NC2=CC(=O)CC(C)(C)C2)cc1C,7.28%
15,CCOC(=O)C(=O)N1CCN(CC)CC1,17.5%
16,CCn1cc(CN(C)C(=O)/C=C/c2ccc([N+](=O)[O-])cc2)c(C)n1,-59.4%
17,CC1CN(C(=O)/C=C/c2ccccc2[N+](=O)[O-])CC(C)O1 (stereo not drawn),-4.44%
18,COc1cccc(NC(=S)NNC(=O)c2c([N+](=O)[O-])c(C)nn2C)c1,17.3%
19,CS(=O)(=O)Nc1ccc2c(c1)ncn2CCc1ccccc1,-26.4%
